From the GPR68 mutational scans of Howard et al. (2025)
Scores whose standard error is large were omitted. Not listed are two conditions whose scores span a narrow range. Read del as a deletion of the residues named and ins as an insertion between two positions. For part of these data: The data file names ogerin without a concentration.

B1: GPR68, Q15743 (parent)
chain: MGNITADNSSMSCTIDHTIHQTLAPVVYVTVLVVGFPANCLSLYFGYLQIKARNELGVYLCNLTVADLFYICSLPFWLQYVLQHDNWSHGDLSCQVCGILLYENIYISVGFLCCISVDRYLAVAHPFRFHQFRTLKAAVGVSVVIWAKELLTSIYFLMHEEVIEDENQHRVCFEHYPIQAWQRAINYYRFLVGFLFPICLLLASYQGILRAVRRSHGTQKSRKDQIQRLVLSTVVIFLACFLPYHVLLLVRSVWEASCDFAKGVFNAYHFSLLLTSFNCVADPVLYCFVSETTHRDLARLRGACLAFLTCSRTGRAREAYPLGAPEASGKSGAQGEEPELLTKLHPAFQTPNSPGSGGFPTGRLA

Legend:
[1] = variants of: B1; assay: cAMP reporter score (Enrich2 score, wild type = 0); higher = more signal; HEK293T, FACS bins
[2] = variants of: B1; assay: surface expression score (Enrich2 score, wild type = 0); higher = more signal; HEK293T, FACS bins

Variant | cAMP reporter score ([1]; pH 5.5) | cAMP reporter score ([1]; pH 6) | cAMP reporter score ([1]; pH 6, modulator: ogerin) | cAMP reporter score ([1]; pH 6.5, modulator: ogerin) | surface expression score [2]
E174_H175insGS | -1.57 | -1.77 | -1.51 | -1.41 | -0.141
I178del | -1.97 | -1.51 | -1.54 | -1.04 | -2.31
E174_H175del | -1.39 | -1.55 | -0.76 | -0.58 | 0.131
A180G | 1.85 | -0.359 | 1.36 | 1.28 | 1.11
A180H | -0.915 |  | 0.522 | 0.624 | 0.161
A180C | -1.22 | -0.687 | -0.743 | -2.41 | -0.43
A180E | -0.389 | 0.47 | -0.322 | 0.18 | -0.597
A180I | 0.434 | -1.26 | 0.301 | -0.446 | -0.545
E174_Y176del | -0.471 | -0.637 | -1.57 | -0.682 | -1.68
I178_Q179insG | -1.5 | -1.65 | -2.29 | -1.36 | -2.64
Y176del | -1.79 | -1.3 | -0.944 | -1.39 | -2.06
H175_Y176insGS | -2.11 | -0.535 | -0.156 | -0.413 | 0.056
F173_E174insG | -1.32 | -1.53 | -1.72 | -1.79 | -2.27
P177_I178insGS | -2.17 | -0.498 | -1.56 | -1.57 | -1.52
I178_Q179del | -1.2 | -0.69 | -1.74 | -1.09 | -2.08
P177_I178insG | -1.14 | -0.023 | -1.64 | -0.687 | -0.378
P177del | -0.66 | -1.66 | -1.8 | -1.67 | -2.28
F173_E174insGS | -0.219 | -0.702 | -1.87 | -1.2 | -0.245
H175_P177del | -1.13 | 0.038 |  |  | -1.51
I178Q | -0.235 | -0.926 | -0.428 | -0.961 | -0.334
I178W | -1.98 |  | -1.79 | -0.198 | 0.468

Variant | cAMP reporter score ([1]; pH 5.5) | cAMP reporter score ([1]; pH 6) | cAMP reporter score ([1]; pH 6, modulator: ogerin) | cAMP reporter score ([1]; pH 6.5, modulator: ogerin) | surface expression score [2]
I178Y | -0.055 | -0.549 | -1.36 | -0.828 | -0.214
I178N | -1.14 | -0.814 | -0.843 | 0.472 | -0.955
I178T | 0.662 | 0.279 | 0.762 | -0.643 | 0.201
I178M | 0.631 | 1.28 | 0.622 | 1.84 | 0.49
I178L | -0.005 |  | 1.23 | -0.553 | -0.445
I178A | -0.571 | 1.27 | -0.478 | -0.933 | -0.491
I178R | -1.3 | -1.53 | -0.94 | -1.8 | -1.76
I178D | -0.267 | 0.082 | -1.09 | -0.859 | -1.09
I178G | -1.18 | -0.823 | -0.618 | -1.26 | -0.847
I178V | -0.485 | 0.095 | -0.627 | -0.716 | -0.46
I178K | -1.26 | -1.38 |  | -0.672 | -0.736
I178S | -0.514 | 0.991 | -0.75 |  | -0.968
I178F | -1.1 | -0.3 | -1.14 | -0.824 | -0.176
I178C | -0.793 | -0.411 | -1 | -0.291 | -1.51
I178H | -1.21 | -0.744 | -1.8 | -1.14 | -0.821
I178P | -0.566 | -1.04 | -0.356 | -0.739 | -1.16
P177_I178del | -1.93 | -0.923 | -0.884 | -0.774 | -2.02
E174H | -0.482 | -0.66 |  | -0.078 | 
E174Y | -1.64 | -1.02 | -1.76 | -1.36 | -0.75
E174M | -2.21 | -1.4 | -2.07 | -0.887 | -0.399
E174N | -1.12 | -0.376 | -1.55 | -1.79 | -0.942

Variant | cAMP reporter score ([1]; pH 5.5) | cAMP reporter score ([1]; pH 6) | cAMP reporter score ([1]; pH 6, modulator: ogerin) | cAMP reporter score ([1]; pH 6.5, modulator: ogerin) | surface expression score [2]
E174V | -0.44 | 0.273 | -1.41 | -0.67 | 0.034
E174L | -1.82 | -2.23 | -1.17 | -2.38 | -1.42
E174D | -0.418 | -1.01 | -0.873 | -1.37 | 0.443
E174W | -1.31 | -1.72 | -1.66 | -1.86 | -0.325
E174R | -0.943 | -0.849 |  | -0.39 | -0.45
E174G | -0.974 | -0.284 | -0.592 | -0.592 | -0.321
E174S | -1.83 | -0.092 | -1.39 | -0.335 | 2.25
E174Q | -1.77 | -1.35 | -1.15 | -1.56 | 1.4
E174K | -0.387 | -0.772 |  |  | 1.78
E174C | -1.06 | -0.492 | -0.437 | 0.082 | 0.856
E174I | -1.82 | -2.19 | -1.82 | -1.52 | -0.568
E174F | -1.2 | -1.4 | -1.3 | -1.59 | 0.389
E174P | -0.004 | 0.277 | -0.293 | -0.829 | -0.517
E174T | -1.27 | -1.34 | -1.47 | -1.25 | 0.137
E174A | -1.52 |  | -0.682 |  | 1.91
C172T | -1.47 | -1.46 | -1.48 | -1.63 | -1.6
C172W | -2.29 | -0.441 | -1.5 | -0.545 | 
C172V | -0.925 |  |  | -0.817 | -0.377
C172Y | -1.46 | -0.484 | -0.739 | -0.745 | 0.33
P177_I178insGSG | -2.4 | -1.16 | -2.69 | -0.878 | -1.69
H175_Y176del | -1.63 | -0.776 |  | -0.895 | -1.36
